# Results reported in a collection of fitness landscapes (doi:10.1016/j.celrep.2020.107928).
# In all, about 81,000 sequences were measured (“one-hybrid fitness for binding NBS DNA”: median about -0.1, highest 2% from about 0.36 on). Some of the results follow.
# B1: Caulobacter ParB omega fusion; a variant is named by its letters at X, in order, B8GW30 (parent)
# chain: MESVVVGEPGMSEGRRGLGRGLSALLGEVDAAPAQAPGEQLGGSREAPIEILQRNPDQPRRTFREEDLEDLSNSIREKGVLQPILVRPSPDTAGEYQIVAGERAWRAAQRAGLKTVPIMVRELDDLAVLEIGIIENVQRADLNVLEEALSYKVLMEKFERTQENIAQTIGKSXSHVANXMRLLXLPDEVQSYLVSGELTAXHARAIAAAADPVALAKQIIEGGLSVRETEALARKAPNLSAGKSKGGRPPRVKDTDTQALESDLSSVLGLDVSIDHRGSTGTLTITYATLEQLDDLCNRLTRGI
# Variants of: B1
# Assay: one-hybrid fitness for binding NBS DNA (the Noc-binding site; scaled: cognate 1, non-cognate 0); higher = stronger binding
# Conditions: with NBS DNA site
# In short: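 On M9-minus-histidine containing 0.1 mM IPTG and 5 mM 3-AT, E. coli USO cells with a HIS3 reporter, site 19 bp from the promoter, grew 48 hours at 37°C to select Caulobacter ParB libraries randomised at four specificity codons. Plasmids from before and after were Illumina-sequenced, with three replicate libraries pooled and variants under 10 reads left out. Fitness is the log change in variant-to-wild-type read ratio, rescaled against cognate and non-cognate.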
row,Variant,one-hybrid fitness for binding NBS DNA
1,FLDG,≤ 0.2
2,SPTG,≤ 0.2
3,AIPP,≤ 0.2
4,PIKC,≤ 0.2
5,DRRS,≤ 0.2
6,GYHC,≤ 0.2
7,KQPF,≤ 0.2
8,ELFS,≤ 0.2
9,NCIY,≤ 0.2
10,AGIY,≤ 0.2
11,HTWS,≤ 0.2
12,GMII,≤ 0.2
13,YSVD,≤ 0.2
14,NRNM,≤ 0.2
15,AIRK,≤ 0.2
16,TPPL,≤ 0.2
17,LYEY,≤ 0.2
18,IDHA,≤ 0.2
19,CATC,≤ 0.2
20,GKDV,≤ 0.2
21,TPRD,≤ 0.2
22,TGLF,≤ 0.2
23,QPNV,≤ 0.2
24,RWNR,0.436
25,LIID,≤ 0.2

row,Variant,one-hybrid fitness for binding NBS DNA
1,LLQK,≤ 0.2
2,FGES,≤ 0.2
3,DSMW,≤ 0.2
4,NHQV,≤ 0.2
5,FRDR,≤ 0.2
6,HCKS,≤ 0.2
7,YTTS,≤ 0.2
8,WSHI,≤ 0.2
9,ESGS,≤ 0.2
10,KWSG,≤ 0.2
11,FTDR,≤ 0.2
12,TPRC,≤ 0.2
13,RDRC,≤ 0.2
14,HKPK,≤ 0.2
15,CDHC,≤ 0.2
16,KLTG,≤ 0.2
17,AVPM,≤ 0.2
18,LAMV,≤ 0.2
19,SKTI,≤ 0.2
20,SNAA,≤ 0.2
21,EQSV,≤ 0.2
22,NNWM,≤ 0.2
23,IQLG,≤ 0.2
24,QQEA,≤ 0.2
25,LLER,≤ 0.2

row,Variant,one-hybrid fitness for binding NBS DNA
1,RALM,≤ 0.2
2,KAPI,≤ 0.2
3,NLST,≤ 0.2
4,GHLP,≤ 0.2
5,TVRT,≤ 0.2
6,AMTL,≤ 0.2
7,SFWT,≤ 0.2
8,STRW,≤ 0.2
9,PHMC,≤ 0.2
10,YYRQ,≤ 0.2
11,YTVL,≤ 0.2
12,CLAG,≤ 0.2
13,PGHV,≤ 0.2
14,PGTY,≤ 0.2
15,DQPC,≤ 0.2
16,CICC,≤ 0.2
17,PIPV,≤ 0.2
18,KPDT,≤ 0.2
19,THMG,≤ 0.2
20,ERLV,≤ 0.2
21,EMYT,≤ 0.2
22,KRNH,0.265
23,LAHC,≤ 0.2
24,YMHS,≤ 0.2
25,HNSL,≤ 0.2

row,Variant,one-hybrid fitness for binding NBS DNA
1,CRVH,≤ 0.2
2,PRRW,≤ 0.2
3,IKKG,≤ 0.2
4,GALR,≤ 0.2
5,DQTN,≤ 0.2
6,FMCG,≤ 0.2
7,DPPS,≤ 0.2
8,LQSL,≤ 0.2
9,TRKM,0.216
10,SGEC,≤ 0.2
11,EPQT,≤ 0.2
12,ECLK,≤ 0.2
13,QIYA,≤ 0.2
14,SEGT,≤ 0.2
15,DWTC,≤ 0.2
16,AMVS,≤ 0.2
17,LLTI,≤ 0.2
18,MDNY,≤ 0.2
19,RGWS,≤ 0.2
20,KDNR,≤ 0.2
21,CNLP,≤ 0.2
22,LNTT,≤ 0.2
